# Data from paper PMC12136788.
# The other results are listed elsewhere or left out.
# B1: ENSG00000070961:be:win_1301|CDS|ENSG00000070961|bound_else_gene|NA|bound_elsewhere_windowed (ssRNA)
# RNA: GGGAGUUCUACAGUCCGACGAUCGUCUUCCACUUGCAGUCACGAUCUCACUGGCUUAUUCAGUCAAAAAAAUGAUGAAAGAUAAUAACUUAGUAAGGCAUCUGGAUGCUUGUGAAACCAUGGGAAAUGCUACAGCUAUUUGUUCAACAGAGGAUUGAGCAUCA
# B2: chr1:54850123:54850236:-|3pUTR|ENSG00000116133|msi1_unk|total|mutant (ssRNA)
# RNA: GGGAGUUCUACAGUCCGACGAUCGCCUCCAACCCUAAGCCACUGGGACGGUGGCCAGAGAUGCCAGCAGCCUCUGUCGCCCUCCGUCAUAUAACCAAAAUCCAGACCUUAUCCACAACCCGGGGCUUGGAAAGGAAGGUAUUUCAACAGAGGAUUGAGCAUCA
# B3: chr12:132722103:132722204:+|3pUTR|ENSG00000247077|msi1|total|mutant (ssRNA)
# RNA: GGGAGUUCUACAGUCCGACGAUCGCUUCGCCUUUGACCUUCAUGCUGGUCUCGGCUGAGGUGACACGCCCGUGACAGCCCAACCGGGGGUUACCCUUAUUGAGUAAAAUACUUCAGAUUGACAGCUCAAUCUCCGUUUGCCUCCAACAGAGGAUUGAGCAUCA
# B4: chr3:122768741:122768856:-|CDS|ENSG00000169087|unk|total|mutant (ssRNA)
# RNA: GGGAGUUCUACAGUCCGACGAUCACAUGUAAUUACGCCGAAGCUACACUCGAAGAGUUUCUGACCUGGAACUGUGACCAGUCCCGUAUUUCUGGACCAUUCCGAGAUUAUGACCAUUCCAAGUUCUGGGCUUAUGCUGACUAUCAACAGAGGAUUGAGCAUCA
# B5: chr17:47658542:47658643:+|CDS|ENSG00000108424|unk|total|mutant (ssRNA)
# RNA: GGGAGUUCUACAGUCCGACGAUCGAUUCUGACUGCCAUAAUCCAGGGGAUGAGGAAAGAAGAGCCCCGUAAUAAUGUGAAGCCCGCUGCUACGAAUGCACUCCUGAACUCAUUGGAGUUCACCAAAGCAAACUUUGAUAAAGACAACAGAGGAUUGAGCAUCA
# B6: chr21:42850051:42850242:-|CDS|ENSG00000160193|control|control|control (ssRNA)
# RNA: GGGAGUUCUACAGUCCGACGAUCCACGUUCGACAACGUGACCUCCUACCUGAAGAAGAAAGAGGAGAGACUGCAGCAGCAGCUAGAGAAGAAGCAGCGGCGCCGGAGUCCCCCGCCUGGGCCCGACGGGCAUGCCAAGAAGAUCAACAGAGGAUUGAGCAUCA
# B7: chr10:62096657:62096758:+|3pUTR|ENSG00000150347|msi1|FALSE|unique (ssRNA)
# RNA: GGGAGUUCUACAGUCCGACGAUCACCUCUAUGCUCUGUAAGGUGAUUAUUUGUAUAUAGCAACAUGGCCCAGUGAUAUUAUAUAGUUUCCCAAUGGAGAGGUUAUUGAGUAACCUUUGCAUUAGUUUAAACACUACCAGAAGACAACAGAGGAUUGAGCAUCA
# B8: ENSG00000127022:stop:overlap|stop_codon|ENSG00000127022|stop_codon|NA|stop_codon (ssRNA)
# RNA: GGGAGUUCUACAGUCCGACGAUCACACAUUUUGUUUUACCAAGCUGAAGGUACAUUUAUGUAAAGGGAAUAUUUUAAUAGGGUAGUUUACAGUGGCUUAUGGCAGUAAAAAUUCUGUUAAAGCCAAUUUUGUUGAAGUGGGAUCAACAGAGGAUUGAGCAUCA
# B9: chr17:59607285:59607386:+|3pUTR|ENSG00000108406|unk|total|mutant (ssRNA)
# RNA: GGGAGUUCUACAGUCCGACGAUCUAAAUCAAAGCUCAUCAGUUCCCAUAAAUGCAGUUGUCAAAGAAAAGAUUUGGUUGCCACCGUCAUAAGCAAUGAUACAUGAAACCAAUGAAAGACAGUACAUGUAAUAAUAUUUUCCUCCAACAGAGGAUUGAGCAUCA
# B10: chr1:23094017:23094118:-|CDS|ENSG00000169641|unk|FALSE|unique (ssRNA)
# RNA: GGGAGUUCUACAGUCCGACGAUCCUCCAGAAAGCAGAGGAUGAACUCCUGGAUCUCCAGGACAAGGUGAUUCAGGCAGAAGGUAGCAACUCCAGCAUGUUGGCGGAGAUUGAAGUGCUGCGCCAGCGGGUGCUGAGAAUUGAACAACAGAGGAUUGAGCAUCA
# B11: chr3:11298707:11298833:+|CDS|ENSG00000197548|unk|total|mutant (ssRNA)
# RNA: GGGAGUUCUACAGUCCGACGAUCAUAAUGGCGGCAGCUACGGGGGAUCCUGGACUCUCUAAACUGCAGUUUGCCCCUUUCCGCCGUGCCUUGGAUGUUGGGUUUUGGCAUGAGUUGACCCAGAAGAAGCUGAACGAGUAUCGGCAACAGAGGAUUGAGCAUCA
# B12: chr2:96373863:96373964:+|3pUTR|ENSG00000121152|unk|total|mutant (ssRNA)
# RNA: GGGAGUUCUACAGUCCGACGAUCCCGAACUGGCAAAAUAUUUGAGUGUCCACCCGAUGAGUAUCAGACCCCGUCCUUACCCUCCGGGGGAUGCAGUCCUGGUUGUUAUCCAGGAUACACACCUGUCAGUAUAAGGCAGAAGAUCAACAGAGGAUUGAGCAUCA
# B13: chr14:52864448:52864598:-|CDS|ENSG00000073712|unk|FALSE|unique (ssRNA)
# RNA: GGGAGUUCUACAGUCCGACGAUCGAUGGCAGCCUGCAGAUUAGCCUCCAAAGGCAAGACCAUGGCGGACAGUUCUUACAACUUAGAAGUUCAGAAUAUUCUUUCCUUUCUGAAGAUGCAGCAUUUAAACCCAGAUCCUCAGUUCAACAGAGGAUUGAGCAUCA
# B14: chr11:108172639:108172748:-|CDS|ENSG00000149308|unk|FALSE|unique (ssRNA)
# RNA: GGGAGUUCUACAGUCCGACGAUCGUUAUCAUUAGUGAUGAUCCAUUUGUUUCCUCAGAUACUGAACUUACCAGUGCUGUUUCUAGUAUUAAUGGAGAAAACCUGCCAACUAUAAUCUUGUCUUCUCCUACUAAAUCACCUACUCAACAGAGGAUUGAGCAUCA
# Target: T1, UNK ZnF1-6 (called full-length) (human, UniProt Q9C0B0 30-357)
# T1 sequence: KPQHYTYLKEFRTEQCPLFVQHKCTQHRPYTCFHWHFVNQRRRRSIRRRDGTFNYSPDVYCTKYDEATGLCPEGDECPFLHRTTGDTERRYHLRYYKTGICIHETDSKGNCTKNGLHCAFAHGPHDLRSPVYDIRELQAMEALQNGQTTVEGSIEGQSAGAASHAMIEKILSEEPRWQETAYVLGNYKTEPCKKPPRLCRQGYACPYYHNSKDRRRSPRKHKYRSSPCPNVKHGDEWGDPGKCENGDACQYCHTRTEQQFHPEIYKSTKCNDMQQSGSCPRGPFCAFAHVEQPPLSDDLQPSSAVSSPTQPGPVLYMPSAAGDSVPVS
# Test: nsRBNS (natural sequence RNA bind-n-seq); RBNS binding buffer (assumed for nsRBNS): 25 mM Tris pH 7.5, 150 mM KCl, 3 mM MgCl2, 0.01% Triton X-100, 500 ug/ml BSA, 20 U/ml SUPERase-In, 4 C; UNK is unkempt and MSI1 is Musashi-1; names of the RNAs are library labels; protein concentration not given here; high values mean tight binding
row,Binder,binding signal
1,B1,0.382 enrichment R
2,B2,1.11 enrichment R
3,B3,0.374 enrichment R
4,B4,0.54 enrichment R
5,B5,0.614 enrichment R
6,B6,0.8 enrichment R
7,B7,0.888 enrichment R
8,B8,0.76 enrichment R
9,B9,0.384 enrichment R
10,B10,0.513 enrichment R
11,B11,0.839 enrichment R
12,B12,0.443 enrichment R
13,B13,0.725 enrichment R
14,B14,0.572 enrichment R
